The values below come from article PMC6919601, “Identification of Plasmodium dipeptidyl aminopeptidase allosteric inhibitors by high throughput screening” (PLoS ONE, 2019).

Where “and” joins values, the source holds several entries; their conditions need not be identical. Equal values may be shown once. About 230 (0.21%) of roughly 110,000 compounds showed an effect of 50% or more. The list shows a part of the results.
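Further: 30 min substrate incubation versus DMSO and 10 µM JCP410 controls.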

DPAP1, sequence (Q8IIJ9 whole entry, looked up): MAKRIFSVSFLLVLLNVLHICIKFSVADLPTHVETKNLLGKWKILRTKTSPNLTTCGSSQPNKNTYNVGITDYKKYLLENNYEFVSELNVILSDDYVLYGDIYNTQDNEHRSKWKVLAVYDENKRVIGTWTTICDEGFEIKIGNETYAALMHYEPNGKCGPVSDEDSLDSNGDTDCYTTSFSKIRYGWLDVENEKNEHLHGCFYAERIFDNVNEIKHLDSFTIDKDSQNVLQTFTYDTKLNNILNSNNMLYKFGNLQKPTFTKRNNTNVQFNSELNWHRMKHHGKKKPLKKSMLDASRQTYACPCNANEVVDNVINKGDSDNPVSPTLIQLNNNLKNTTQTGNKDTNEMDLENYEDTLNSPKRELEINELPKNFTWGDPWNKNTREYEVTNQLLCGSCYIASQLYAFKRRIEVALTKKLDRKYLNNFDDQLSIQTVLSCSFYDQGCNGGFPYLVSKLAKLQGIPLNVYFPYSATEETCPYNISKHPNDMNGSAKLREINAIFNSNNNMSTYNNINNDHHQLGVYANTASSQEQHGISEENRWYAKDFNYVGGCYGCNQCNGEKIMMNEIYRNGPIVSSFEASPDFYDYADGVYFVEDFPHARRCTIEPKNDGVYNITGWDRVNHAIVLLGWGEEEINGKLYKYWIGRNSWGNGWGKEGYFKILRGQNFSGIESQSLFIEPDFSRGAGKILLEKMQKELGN

This assay concerns the target DPAP1 (Plasmodium falciparum, UniProt Q8IIJ9). Briefly: primary screen, percent inhibition; read by cleavage of a fluorogenic dipeptide substrate; higher = more effect of the substance. Details: species or system P. falciparum D10 trophozoite lysates; single well.
For the compound `CCc1nc2ccc(C(=O)N3CCN(c4ccccn4)CC3)cc2nc1CC`, the “% Inhibition @ 10 uM” value is -3.26%.

On to `O=C(NCCc1ccc(Cl)cc1)c1cnn(-c2ccccc2)c1-n1cccc1`, for which the “% Inhibition @ 10 uM” value is given as -3.58%.

Turning to `CCOC(=O)c1c(NC(=O)CNC(C)(C)C)sc2c1CCC2`, the “% Inhibition @ 10 uM” value is recorded as 3.01%.

For `Fc1ccc(CCNCc2ccc(Br)cc2)cc1`, the “% Inhibition @ 10 uM” value was determined as 1.02%.

`O=C(Nc1cccnc1Cl)C(O)(c1ccccc1)c1ccccc1`: the “% Inhibition @ 10 uM” value came out at 5.09%.

With `CCc1nc2ccc(C(=O)NCCc3ccc(S(N)(=O)=O)cc3)cc2nc1CC`, the “% Inhibition @ 10 uM” value came out at 9.95%.

Regarding `COc1cc(COc2ccc3c(C)c(CCC(=O)O)c(=O)oc3c2)cc(OC)c1OC`, the “% Inhibition @ 10 uM” value came out at 0.147%.

In the case of `CC1(C)CC(=O)C2=C(C1)N(c1ccc(Cl)cc1)C(N)=C(C#N)C2c1cccs1` (stereo not drawn), the “% Inhibition @ 10 uM” value was determined as 4.07%.

Take `COc1ccc(C2C(C#N)=C(N)Oc3cc(C)oc(=O)c32)cc1Br` (stereo not drawn): the “% Inhibition @ 10 uM” value was -5.57%.

Take `Cc1ccc(C(=O)NC(C(=O)O)C23CC4CC(CC(C4)C2)C3)cc1` (stereo not drawn): the “% Inhibition @ 10 uM” value is reported as 2.51%.

In the case of `Cc1cc(C)c(NC(=O)CCc2ccccc2)c(C)c1`, the “% Inhibition @ 10 uM” value was -5.62%.

For the compound `CCCSc1nnc(-c2ccccc2N)c(O)n1`, the “% Inhibition @ 10 uM” value was -1.37%.

Regarding `O=C1c2ccccc2C(=O)N1c1cc(Cl)ccc1Cl`, the “% Inhibition @ 10 uM” value is recorded as -5.13%.

Consider `O=C(O)CCn1c2ccccc2c2cnnc(O)c21`, for which the “% Inhibition @ 10 uM” value is on record as 4.79%.

Take `COc1cc(/C=C2\SC(=O)N(CC(=O)Nc3ccc(C)cc3)C2=O)c(Br)cc1O`: the “% Inhibition @ 10 uM” value is listed as -2.25%.

As for `COc1cccc(C(=O)c2cc3ccc(O)cc3oc2=O)c1`, the “% Inhibition @ 10 uM” value is recorded as 2.12%.

For `CN1C(C(=O)NCCc2ccccc2)=CC(c2cccs2)=NS1(=O)=O`, the “% Inhibition @ 10 uM” value worked out at 3.92%.

Take `CCCc1nnc2sc(NC(=O)C(C)C)nn12`: the “% Inhibition @ 10 uM” value is -5.99%.

Take `CCCN1CCN(C(=O)C2CCCN(c3nnc(C)c4c(C)n(-c5ccccc5)nc34)C2)CC1` (stereo not drawn): the “% Inhibition @ 10 uM” value came out at 4.07%.

In the case of `Oc1ncnc2c1sc1nc3c(c(-c4ccco4)c12)CCc1ccccc1-3`, the “% Inhibition @ 10 uM” value stood at 3.33%.

For the compound `CCc1ccc(C2NC(=O)NC(C)=C2C(=O)OCC(C)C)cc1` (stereo not drawn), the “% Inhibition @ 10 uM” value is listed as -4.18%.

For `CCOCCCNC(=O)CN1Cc2ccccc2C1=O`, the “% Inhibition @ 10 uM” value stood at 3.12%.

As for `Cc1ccccc1NC(=O)/C=C/c1ccc2c(c1)OCO2`, the “% Inhibition @ 10 uM” value is recorded as -9.84%.

With `CCc1nnc(NC(=O)C2=CCN(S(=O)(=O)c3ccccc3)CC2)s1`, the “% Inhibition @ 10 uM” value is on record as -7.1%.

Turning to `Cc1nc2c(c(C)c1C#N)C(=O)c1ccccc1-2`, the “% Inhibition @ 10 uM” value is given as 1.65%.

For `CCOC(=O)N1CCC(NC2CCN(Cc3ccccc3)CC2)CC1`, the “% Inhibition @ 10 uM” value is -5.44%.

As to `COc1ccc(/C=C2\CCC/C(=C\c3ccc([N+](=O)[O-])cc3)C2=O)cc1`, the “% Inhibition @ 10 uM” value was -0.902%.

On to `COc1ccc(Cl)cc1-n1nc(C)c2c1CC(c1ccccc1)CC2=O` (stereo not drawn), for which the “% Inhibition @ 10 uM” value is reported as -0.703%.

For `CNC(=S)N(Cc1ccccc1)Cc1ccccc1`, the “% Inhibition @ 10 uM” value is listed as 2.03%.

Turning to `COc1cccc(OCc2ccc(C(=O)Nc3cccc(F)c3)cc2)c1`, the “% Inhibition @ 10 uM” value was 2.64% and -5.07%.

As for `COc1ccc(C2CC3=Nc4ccccc4NC(c4ccncc4)C3=C(O)C2)cc1OC` (stereo not drawn), the “% Inhibition @ 10 uM” value was -6.34%.

With `CC(NC(=O)Nc1ccc(Cl)cc1)c1ccccc1` (stereo not drawn), the “% Inhibition @ 10 uM” value is recorded as -4.72%.

For the compound `COc1cccc([C@H]2NCC[C@@]3(O)CCCC[C@H]23)c1OC`, the “% Inhibition @ 10 uM” value came out at 1.66%.

On to `CCOc1ccccc1C1C2=C(O)CCCC2=NC(C)=C1C(=O)Nc1ccccc1OC` (stereo not drawn), for which the “% Inhibition @ 10 uM” value came out at 0.851%.

With `CCOC(=O)N1CCC(NC23CC4CC(CC(C4)C2)C3)CC1`, the “% Inhibition @ 10 uM” value is -2.95%.

Consider `Fc1ccc(-c2csc(Nc3cccnc3)n2)cc1`, for which the “% Inhibition @ 10 uM” value is on record as 4.96%.

For `COc1ccccc1NC(=O)c1c(NC(=O)CCC(=O)O)sc2c1CCC(C)C2` (stereo not drawn), the “% Inhibition @ 10 uM” value was 9.59%.

Regarding `O=C1c2ccc([N+](=O)[O-])cc2C(=O)N1Cc1ccccc1`, the “% Inhibition @ 10 uM” value turned out to be 0.986%.

Consider `Cc1ccccc1OCCSc1nc2ccccc2n1CCO`, for which the “% Inhibition @ 10 uM” value is listed as -4.89%.

Consider `Sc1nnc(CN2CCC(Cc3ccccc3)CC2)n1-c1ccccc1`, for which the “% Inhibition @ 10 uM” value is on record as -1.5%.

As to `O=C(CCCN1C(=O)c2ccccc2Sc2ncccc21)NCc1ccccc1Cl`, the “% Inhibition @ 10 uM” value was 6.35%.

Consider `Cc1nn(CC(=O)NCc2cccnc2)c(=O)c2ccccc12`, for which the “% Inhibition @ 10 uM” value is reported as 2.95%.

`CC(CCc1ccc(O)cc1)NC1CCCC1` (stereo not drawn): the “% Inhibition @ 10 uM” value is listed as 0.565%.

In the case of `Cc1c(CCC(=O)N2CCOCC2)c(=O)oc2cc3occ(C(C)(C)C)c3cc12`, the “% Inhibition @ 10 uM” value was -2.57%.

Regarding `CC(=O)Nc1ccc(S(=O)(=O)N2c3ccc(F)cc3CCC2C)cc1` (stereo not drawn), the “% Inhibition @ 10 uM” value turned out to be 0.316%.

In the case of `Cc1ccccc1Cn1cc(NC(=O)c2cc(CC(C)C)on2)cn1`, the “% Inhibition @ 10 uM” value was -3.77%.

As for `Cc1ccc(C(C)C)c(OCCNS(C)(=O)=O)c1`, the “% Inhibition @ 10 uM” value came to 1.76%.

Consider `O=C(Nc1ccc(NC(=O)C2CC2c2ccccc2)cc1)C1CC1c1ccccc1` (stereo not drawn), for which the “% Inhibition @ 10 uM” value came out at 7%.

Regarding `C=CCNc1nc(N)c(C(=O)c2ccccc2)s1`, the “% Inhibition @ 10 uM” value is -3.77%.

For the compound `CCC(NC(=O)c1ccoc1C)c1ccccc1` (stereo not drawn), the “% Inhibition @ 10 uM” value is on record as 4.98%.

With `CC1=C(C(=O)OCCCc2ccccc2)C(c2ccccc2C(F)(F)F)CC(=O)N1` (stereo not drawn), the “% Inhibition @ 10 uM” value was 1.58%.
